Hit rate of the full screen: of about 310,000 compounds, about 2,200 (0.71%) showed an effect of 50% or more. Effects have a minus sign here. The list shows a part of the results.
Each compound was assayed against human ether-à-go-go-related gene (hERG) potassium channel (human, UniProt Q12809) (assay: primary screen, population patch clamp on CHO cells stably expressing hERG).
human ether-à-go-go-related gene (hERG) potassium channel, sequence (Q12809 whole entry, looked up): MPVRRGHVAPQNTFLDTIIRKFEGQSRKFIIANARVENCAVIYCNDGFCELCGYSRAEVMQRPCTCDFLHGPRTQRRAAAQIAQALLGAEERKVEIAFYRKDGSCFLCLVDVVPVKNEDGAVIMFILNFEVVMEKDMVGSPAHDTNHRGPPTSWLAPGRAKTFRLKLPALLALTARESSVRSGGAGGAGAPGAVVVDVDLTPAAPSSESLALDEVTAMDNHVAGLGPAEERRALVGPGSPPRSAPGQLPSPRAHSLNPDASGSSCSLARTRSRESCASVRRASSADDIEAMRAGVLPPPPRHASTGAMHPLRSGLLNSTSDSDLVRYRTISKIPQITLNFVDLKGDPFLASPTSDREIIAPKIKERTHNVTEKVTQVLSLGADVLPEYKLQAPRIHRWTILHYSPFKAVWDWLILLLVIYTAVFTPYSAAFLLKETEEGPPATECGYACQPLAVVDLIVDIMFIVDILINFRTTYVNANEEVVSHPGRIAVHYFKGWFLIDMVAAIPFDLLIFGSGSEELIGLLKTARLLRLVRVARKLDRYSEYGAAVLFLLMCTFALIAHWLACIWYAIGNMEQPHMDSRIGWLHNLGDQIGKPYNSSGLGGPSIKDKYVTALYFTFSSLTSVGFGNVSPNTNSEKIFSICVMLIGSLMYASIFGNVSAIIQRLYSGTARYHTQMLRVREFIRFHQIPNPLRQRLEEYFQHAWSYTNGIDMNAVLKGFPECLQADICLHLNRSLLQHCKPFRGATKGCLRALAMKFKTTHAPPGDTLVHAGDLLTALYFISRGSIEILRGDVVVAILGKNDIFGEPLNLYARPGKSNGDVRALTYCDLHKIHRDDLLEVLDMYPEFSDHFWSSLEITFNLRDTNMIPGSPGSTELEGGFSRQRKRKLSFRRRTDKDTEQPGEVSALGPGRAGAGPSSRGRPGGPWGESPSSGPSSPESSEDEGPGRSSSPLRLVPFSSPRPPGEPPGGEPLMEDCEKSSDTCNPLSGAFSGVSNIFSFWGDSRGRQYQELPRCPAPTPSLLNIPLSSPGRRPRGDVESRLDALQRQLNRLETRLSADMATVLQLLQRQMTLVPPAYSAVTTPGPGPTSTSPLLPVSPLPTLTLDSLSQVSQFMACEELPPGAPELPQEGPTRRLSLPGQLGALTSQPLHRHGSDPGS

| Compound | hERG current change (%, negative = inhibition) at 1uM |
| --- | --- |
| COC(=O)c1cc(NC(=O)C2C3C=CC(C3)C2C(=O)O)cc(C(=O)OC)c1 (centres unmarked) | 1.02% |
| CCOC(=O)c1c(C)[nH]c(C(=O)CSc2nnc(Nc3ccccc3F)s2)c1C | 2.15% |
| CC1(NC(=O)CCS(=O)(=O)c2ccc(Cl)cc2)CCS(=O)(=O)C1 (centres unmarked) | 7.93% |
| CN1CCN(c2ccc([N+](=O)[O-])c(NCc3ccco3)c2)CC1 | -9.43% |
| O=C(O/N=C1/CCSc2ccccc21)c1ccccc1 | 10.6% |
| CC(C)(C)c1ccc(C(=O)NCCCNC(=O)c2ccccn2)cc1 | 1.66% |
| CC1(C)C2CC[C@]3(C)C(CC=C4[C@@H]5C[C@@](C)(CO)[C@@H]6C[C@@]5(CC[C@]43C)C(=O)O6)[C@@]2(C)CC[C@@H]1O (some centres unmarked) | 16.2% |
| Cc1ccc(C(=O)CSc2ncn[nH]2)cc1 | -2.14% |
| Cc1ccc(SC/C(O)=C(\C#N)c2nc3ccccc3s2)cc1 | 17.8% |
| O=C(NCc1ccco1)/C(=C\c1cccs1)NC(=O)c1cccs1 | 15.5% |
| CCn1c(C(=O)NC2CCC(C)CC2)cc2sccc21 (centres unmarked) | 16.5% |
| Cc1ccc(S(=O)(=O)NC(=O)Nc2ccccc2F)cc1 | 13.1% |
| COc1ccc(NC(=O)c2nc[nH]c2C(=O)N2CCN(C(=O)OC(C)(C)C)CC2)cc1 | -18.4% |
| COC(=O)c1ccc(C(=O)OC)c(-n2c(=O)c3ccccc3c3ccccc3c2=O)c1 | 3.79% |
| CN(C)N=Nc1ccc(S(=O)(=O)NC(Cc2ccccc2)C(=O)O)cc1 (centres unmarked) | 24.8% |
| Cc1cccc(Oc2ncc(-c3ccc(Cl)cc3)cn2)c1 | 4.87% |
| OC[C@@H](O)[C@@H](O)CO | 8.33% |
| O=C(CCNS(=O)(=O)c1ccccc1)N1CCCCCC1 | 25.9% |
| O=C(c1ccc2c(c1)OCO2)N1CCN(c2ccc(C(F)(F)F)cn2)CC1 | -34.5% |
| Cc1nc(N2CCN(c3ccccc3)CC2)nc2c1C(=O)CCC2 | -0.421% |
| CCOC(=O)CN1NC2(CCCCC2)NC1=S | 14.4% |
| Cc1sc2ncn(CC(=O)N3CCN(c4ccccn4)CC3)c(=O)c2c1S(=O)(=O)N1CCC(C)CC1 | 11.9% |

| Compound | hERG current change (%, negative = inhibition) at 1uM |
| --- | --- |
| O=C(NCc1ccncc1)C1CCCN(S(=O)(=O)c2ccc(Br)cc2)C1 (centres unmarked) | -24.7% |
| COCC1CCN(C(=O)c2cc(COc3ccc(OC)c4ccccc34)on2)C1 (centres unmarked) | 9.08% |
| Oc1ccc(C[C@H]2CNCCN2CC2(c3ccccc3)CC2)cc1 | -0.516% |
| COc1ccc(C2CC(C)(c3ccc(OC)cc3)Nc3ccccc3N2)cc1 (centres unmarked) | 12.5% |
| CC(C)(C)C1CCC(C(=O)NCCc2ccc(S(N)(=O)=O)cc2)CC1 (centres unmarked) | 14.6% |
| CSc1ncc(Cl)c(C(=O)Nc2ccc(C)c(C)c2)n1 | 11.6% |
| COc1ccc(N2C(=O)CSC2c2cccc(F)c2)cc1 (centres unmarked) | 14.3% |
| CCN=C1S/C(=C\c2cn(CC(=O)NCCOC)c3ccccc23)C(=O)N1CC | 10.4% |
| Cc1ccc2nc3c(cc(C(=O)NC4CCCCC4)c(=N)n3C3CCCCC3)c(=O)n2c1 | -72.7% |
| COc1ccc(CCNCC(O)c2ccccc2)cc1.O=C(O)C(=O)O (centres unmarked) | -4.18% |
| C/C(N)=C(/C#N)C(=O)CSc1nc2scc(-c3ccc(F)cc3)c2c(=O)n1C | 5.8% |
| O=C(c1c[nH]c2ccccc2c1=O)N1CCCCCC1 | 12.3% |
| COc1ccc(NC(=O)CCNC(=O)C2CCN(S(=O)(=O)c3ccc(F)cc3)CC2)cc1OC | 13.5% |
| Cn1cc(C(=O)N/N=C/c2cccs2)c2ccccc21 | -2.92% |
| O=C(CCN1CCOCC1)c1ccc2c(c1)OCCO2 | 8.47% |
| CC(C)COP(=O)(c1ccc(N(C)C)cc1)C(O)c1cccnc1 (centres unmarked) | 10.2% |
| CCc1ccc(N/C(SCc2cccc(F)c2)=C(/C#N)C(=O)NCc2ccco2)cc1 | 11.6% |
| Cc1ccccc1C(=O)NNC(=S)Nc1cccc(C(F)(F)F)c1 | 13.2% |
| CC(NCC(=O)Nc1ccccc1C(=O)NC1CC1)c1cccc(C(F)(F)F)c1 (centres unmarked) | -0.954% |
| CCSc1nnc(NC(=O)COc2ccc3ccccc3c2)s1 | 8.56% |
| O=C(Nc1cccc(-c2nc3ccccc3s2)c1)c1ccc2c(c1)OCO2 | -15.1% |
| COc1ccc(NS(=O)(=O)c2ccc3c(c2)Cc2ccccc2-3)cn1 | 16.8% |

Reference: publication PMC4336329 (PLoS ONE, 2015)
